Numbering of substitutions follows the chain as printed.
T1: recombinant human sclerostin (human, UniProt Q9BQB4 24-213)
T1 construct: biotinylated in the ELISAs; also called hu sclerostin; hu scl
T1 sequence: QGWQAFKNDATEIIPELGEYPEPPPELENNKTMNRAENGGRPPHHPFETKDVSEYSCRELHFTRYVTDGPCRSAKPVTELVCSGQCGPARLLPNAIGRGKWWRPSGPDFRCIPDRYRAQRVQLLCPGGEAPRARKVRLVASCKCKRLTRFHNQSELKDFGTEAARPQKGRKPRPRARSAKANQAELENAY

B1: DVD2650 (bispecific antibody, human IgG1, kappa, lambda)
heavy: EVQLVESGGGLVQPGGSLRLSCAASGFTFSNYGVEWVRQAPGKGLEWVSGIWADGSTHYADTVKSRFTISRDNSKNTLYLQMNSLRAEDTAVYYCAREWQHGPVAYWGQGTLVTVSSASTKGPEVQLVESGGGLVQPGRSLRLSCAASGFTFDDYALHWVRQAPGKGLEWVSGIGWDEDMIDYADSVKGRFTISRDNAKNSLYLQMNSLRVEDTALYYCAGNNRGYGGLDVWGQGTTVTVSSASTKGPSVFPLAPSSKSTSGGTAALGCLVKDYFPEPVTVSWNSGALTSGVHTFPAVLQSSGLYSLSSVVTVPSSSLGTQTYICNVNHKPSNTKVDKKV[left out - human IgG1 Fc with changes]
light: DIQMTQSPSSLSASVGDRVTITCKASQLVSSAVAWYQQKPGKAPKLLIYWASTLHTGVPSRFSGSGSGTDFTLTISSLQPEDFATYYCQQHYRTPFTFGQGTKLEIKRTVAAPSVFIFPPQSVLTQPPSASGTPGQRVTISCSGSWSNIGSNTVNWYQQLPGTAPKLLIYNNNQRPSGVPDRFSGSKSGTSASLAISGLQSEDEADYYCAAWDDSLSGEYVFGGGTKLTVLGQPKAAPSVTLFPPSSEELQANKATLVCLISDFYPGAVTVAWKADSSPVKAGVETTTPSKQSNNKYAASSYLSLTPEQWKSHRSYSCQVTHEGSTVEKTVAPTECS
notes: DVD-Ig: outer AB437, inner MSL10-AM3.2
B2: DVD2643 (bispecific antibody, human IgG1, lambda)
heavy: EVQLVESGGGLVQPGGSLRLSCAASGFTFSNYGVEWVRQAPGKGLEWVSGIWADGSTHYADTVKSRFTISRDNSKNTLYLQMNSLRAEDTAVYYCAREWQHGPVAYWGQGTLVTVSSASTKGPEVQLVESGGGLVQPGRSLRLSCAASGFTFDDYALHWVRQAPGKGLEWVSGIGWEDDMIDYADSVKGRFTISRDNAKNSLYLQMNSLRVEDTALYYCAGNSRGYGGLDVWGQGTTVTVSSASTKGPSVFPLAPSSKSTSGGTAALGCLVKDYFPEPVTVSWNSGALTSGVHTFPAVLQSSGLYSLSSVVTVPSSSLGTQTYICNVNHKPSNTKVDKKV[left out - human IgG1 Fc with changes]
light: DIQMTQSPSSLSASVGDRVTITCKASQLVSSAVAWYQQKPGKAPKLLIYWASTLHTGVPSRFSGSGSGTDFTLTISSLQPEDFATYYCQQHYRTPFTFGQGTKLEIKRTVAAPQSVLTQPPSASGTPGQRVTISCSGSSSNIGGNTVNWYQQLPGTAPKLLIYSNNQRPSGVPDRFSGSKSGTSASLAISGLQSEDEADYYCAAWDDSLEGSYVFGGGTKLTVLGQPKAAPSVTLFPPSSEELQANKATLVCLISDFYPGAVTVAWKADSSPVKAGVETTTPSKQSNNKYAASSYLSLTPEQWKSHRSYSCQVTHEGSTVEKTVAPTECS
notes: DVD-Ig: outer AB437, inner MSL10-AM2.2
B3: DVD2628 (bispecific antibody, human IgG1, lambda)
heavy: EVQLVESGGGLVQPGGSLRLSCAASGFTFSNYGVTWVRQAPGKGLEWVSMIWADGSTHYASSVKGRFTISRDNSKNTLYLQMNSLRAEDTAVYYCAREWQHGPVAYWGQGTLVTVSSASTKGPEVQLVESGGGLVQPGRSLRLSCAASGFTFDDYALHWVRQAPGKGLEWVSGIGWDEDMIDYADSVKGRFTISRDNAKNSLYLQMNSLRVEDTALYYCAGNNRGYGGLDVWGQGTTVTVSSASTKGPSVFPLAPSSKSTSGGTAALGCLVKDYFPEPVTVSWNSGALTSGVHTFPAVLQSSGLYSLSSVVTVPSSSLGTQTYICNVNHKPSNTKVDKKV[left out - human IgG1 Fc with changes]
light: B2 light with K24R, T53A, L54R, R93K, S139W, G144S, S164N, E210S, S212E
notes: DVD-Ig: outer AB436, inner MSL10-AM3.2
B4: DVD2645 (bispecific antibody, human IgG1, kappa, lambda)
heavy: EVQLVESGGGLVQPGGSLRLSCAASGFTFSNYGVEWVRQAPGKGLEWVSGIWADGSTHYADTVKSRFTISRDNSKNTLYLQMNSLRAEDTAVYYCAREWQHGPVAYWGQGTLVTVSSASTKGPEVQLVESGGGLVQPGRSLRLSCAASGFTFDDYALHWVRQAPGKGLEWVSGIGWEDDMIDYADSVKGRFTISRDNAKNSLYLQMNSLRVEDTALYYCAGNSRGYGGLDVWGQGTTVTVSSASTKGPSVFPLAPSSKSTSGGTAALGCLVKDYFPEPVTVSWNSGALTSGVHTFPAVLQSSGLYSLSSVVTVPSSSLGTQTYICNVNHKPSNTKVDKKV[left out - human IgG1 Fc with changes]
light: B1 light with W146S, S151G, N171S, S217E, E219S
notes: as for B2
B5: DVD2648 (bispecific antibody, human IgG1, lambda)
heavy: EVQLVESGGGLVQPGGSLRLSCAASGFTFSNYGVEWVRQAPGKGLEWVSGIWADGSTHYADTVKSRFTISRDNSKNTLYLQMNSLRAEDTAVYYCAREWQHGPVAYWGQGTLVTVSSASTKGPEVQLVESGGGLVQPGRSLRLSCAASGFTFDDYALHWVRQAPGKGLEWVSGIGWDEDMIDYADSVKGRFTISRDNAKNSLYLQMNSLRVEDTALYYCAGNNRGYGGLDVWGQGTTVTVSSASTKGPSVFPLAPSSKSTSGGTAALGCLVKDYFPEPVTVSWNSGALTSGVHTFPAVLQSSGLYSLSSVVTVPSSSLGTQTYICNVNHKPSNTKVDKKV[left out - human IgG1 Fc with changes]
light: B2 light with S139W, G144S, S164N, E210S, S212E
notes: as for B1
B6: DVD2647 (bispecific antibody, human IgG1, lambda)
heavy: EVQLVESGGGLVQPGGSLRLSCAASGFTFSNYGVEWVRQAPGKGLEWVSGIWADGSTHYADTVKSRFTISRDNSKNTLYLQMNSLRAEDTAVYYCAREWQHGPVAYWGQGTLVTVSSGGGGSGGGGSEVQLVESGGGLVQPGRSLRLSCAASGFTFDDYALHWVRQAPGKGLEWVSGIGWDEDMIDYADSVKGRFTISRDNAKNSLYLQMNSLRVEDTALYYCAGNNRGYGGLDVWGQGTTVTVSSASTKGPSVFPLAPSSKSTSGGTAALGCLVKDYFPEPVTVSWNSGALTSGVHTFPAVLQSSGLYSLSSVVTVPSSSLGTQTYICNVNHKPSNTKVDKKV[left out - human IgG1 Fc with changes]
light: DIQMTQSPSSLSASVGDRVTITCKASQLVSSAVAWYQQKPGKAPKLLIYWASTLHTGVPSRFSGSGSGTDFTLTISSLQPEDFATYYCQQHYRTPFTFGQGTKLEIKRGGSGGGGSGQSVLTQPPSASGTPGQRVTISCSGSWSNIGSNTVNWYQQLPGTAPKLLIYNNNQRPSGVPDRFSGSKSGTSASLAISGLQSEDEADYYCAAWDDSLSGEYVFGGGTKLTVLGQPKAAPSVTLFPPSSEELQANKATLVCLISDFYPGAVTVAWKADSSPVKAGVETTTPSKQSNNKYAASSYLSLTPEQWKSHRSYSCQVTHEGSTVEKTVAPTECS
notes: as for B1
B7: DVD2642 (bispecific antibody, human IgG1, lambda)
heavy: EVQLVESGGGLVQPGGSLRLSCAASGFTFSNYGVEWVRQAPGKGLEWVSGIWADGSTHYADTVKSRFTISRDNSKNTLYLQMNSLRAEDTAVYYCAREWQHGPVAYWGQGTLVTVSSGGGGSGGGGSEVQLVESGGGLVQPGRSLRLSCAASGFTFDDYALHWVRQAPGKGLEWVSGIGWEDDMIDYADSVKGRFTISRDNAKNSLYLQMNSLRVEDTALYYCAGNSRGYGGLDVWGQGTTVTVSSASTKGPSVFPLAPSSKSTSGGTAALGCLVKDYFPEPVTVSWNSGALTSGVHTFPAVLQSSGLYSLSSVVTVPSSSLGTQTYICNVNHKPSNTKVDKKV[left out - human IgG1 Fc with changes]
light: B6 light with W143S, S148G, N168S, S214E, E216S
notes: as for B2
B8: DVD2646 (bispecific antibody, human IgG1, lambda)
heavy: EVQLVESGGGLVQPGGSLRLSCAASGFTFSNYGVEWVRQAPGKGLEWVSGIWADGSTHYADTVKSRFTISRDNSKNTLYLQMNSLRAEDTAVYYCAREWQHGPVAYWGQGTLVTVSSASTKGPSVFPLAPEVQLVESGGGLVQPGRSLRLSCAASGFTFDDYALHWVRQAPGKGLEWVSGIGWEDDMIDYADSVKGRFTISRDNAKNSLYLQMNSLRVEDTALYYCAGNSRGYGGLDVWGQGTTVTVSSASTKGPSVFPLAPSSKSTSGGTAALGCLVKDYFPEPVTVSWNSGALTSGVHTFPAVLQSSGLYSLSSVVTVPSSSLGTQTYICNVNHKPSNTKVDKKV[left out - human IgG1 Fc with changes]
light: B2 light
notes: as for B2
B9: DVD2651 (bispecific antibody, human IgG1, lambda)
heavy: EVQLVESGGGLVQPGGSLRLSCAASGFTFSNYGVEWVRQAPGKGLEWVSGIWADGSTHYADTVKSRFTISRDNSKNTLYLQMNSLRAEDTAVYYCAREWQHGPVAYWGQGTLVTVSSASTKGPSVFPLAPEVQLVESGGGLVQPGRSLRLSCAASGFTFDDYALHWVRQAPGKGLEWVSGIGWDEDMIDYADSVKGRFTISRDNAKNSLYLQMNSLRVEDTALYYCAGNNRGYGGLDVWGQGTTVTVSSASTKGPSVFPLAPSSKSTSGGTAALGCLVKDYFPEPVTVSWNSGALTSGVHTFPAVLQSSGLYSLSSVVTVPSSSLGTQTYICNVNHKPSNTKVDKKV[left out - human IgG1 Fc with changes]
light: B2 light with S139W, G144S, S164N, E210S, S212E
notes: as for B1

target: T1, recombinant human sclerostin; assay: SPR
Protocol: (§1) The binding of antibodies or anti-sclerostin-TNF DVD to purified recombinant human, cynomolgus monkey (cyno), rat and mouse sclerostin and TNFα was determined by surface plasmon resonance-based measurements with a Biacore T100 or T200 instruments (GE Healthcare Life Sciences, Piscataway, N.J., USA) using running HBS-EP+ (10 mM HEPES [pH 7.4], 150 mM NaCl, 3 mM EDTA, and 0.005% surfactant P20) containing additional 150 mM NaCl, and/or 10 mg/ml carboxymethyl dextran, 0.1 mg/ml BSA at 25° C. All chemicals were obtained from GE Healthcare Life Sciences, Piscataway, N.J., USA or otherwise from a different source as described in the text. Approximately 10,000 RU (or 3000 RU when CM3 chip was used) of goat anti-mouse or anti-human IgG (Fcγ) fragment specific polyclonal antibody (Pierce Biotechnology Inc, Rockford, Ill.) diluted in 10 mM sodium acetate (pH 4.5) was directly immobilized across a CM5 (or CM3) research grade biosensor chip using a standard amine coupling kit according to manufacturer's instructions and procedures at 15 μg/ml. Unreacted moieties on the biosensor surface were blocked with ethanolamine. Modified carboxymethyl dextran surface in flowcells 2, 3 and 4 were used as a reaction surface. Modified carboxymethyl dextran in flow cell 1 was used as the reference surface. Biaevaluation T100 software version 2.0.2, GE Healthcare Life Sciences was used to simultaneously fit association and dissociation phases of all injections (using 1:1 fit analysis with local Rmax). Purified antibodies were diluted in running buffer for capture across goat anti-mouse or anti-human IgG specific reaction surfaces. Antibodies to be captured as a ligand (1 μg/ml) were injected over reaction matrices at a flow rate of 10 μl/minute. The association and dissociation rate constants, kon (unit M-1 s-1) and koff (unit s-1) were determined under a continuous flow rate of 50 μl/minute. […] At the end of each cycle the surfaces were regenerated with 10 s injection of 50 mM NaOH or/and by 10 s injection of 10 mM Glycine pH1.5 at a flow rate of 100 μl/min.

| Kd [nM] | koff [s⁻¹] | kon [M⁻¹ s⁻¹] | Binder |
| --- | --- | --- | --- |
| 2.6 | 0.00013 | 51000 | B1 |
| 0.83 | 6.3e-05 | 76000 | B2 |
| 1.5 | 9.3e-05 | 64000 | B3 |
| 0.75 | 6.3e-05 | 85000 | B4 |
| 4 | 0.00033 | 83000 | B5 |
| 4.6 | 0.00021 | 46000 | B6 |
| 1 | 6e-05 | 60000 | B7 |
| 1.1 | 0.00012 | 110000 | B8 |
| 2.7 | 0.00012 | 43000 | B9 |

target: T2, recombinant cynomolgus monkey sclerostin (cynomolgus monkey); assay: SPR
T2 construct: also called cyno sclerostin; Cyno sclerostin
Protocol: as §1

| Kd [nM] | koff [s⁻¹] | kon [M⁻¹ s⁻¹] | Binder |
| --- | --- | --- | --- |
| 1.4 | 0.00015 | 110000 | B1 |
| < 0.0059 | < 1e-06 | 170000 | B2 |
| 3.1 | 0.00028 | 90000 | B3 |
| 0.21 | 2.8e-05 | 130000 | B4 |
| 1.3 | 0.00012 | 93000 | B5 |
| 3.1 | 0.00023 | 73000 | B6 |
| < 0.0067 | < 1e-06 | 150000 | B7 |
| 0.29 | 6.6e-05 | 230000 | B8 |
| 2.6 | 0.0002 | 78000 | B9 |
